First the molecules themselves.
B1: AAGGCAU (DNA:RNA)
RNA: GGGAGACCGGAAUUCAGAUUGUCCAAGGCAUUUAAAUCCCGUCGUAGCCACCA
DNA 1: CAATCTGAATTCCGGTCTCCC
DNA 2: TGGTGGCTACGACGGGATT
B2: UAGACAU (DNA:RNA)
RNA: B1 RNA with A25U, G28A
DNA 1: CAATCTGAATTCCGGTCTCCC
DNA 2: TGGTGGCTACGACGGGATT
B3: CGUAAGU (DNA:RNA)
RNA: B1 RNA with A25C, A26G, G27U, G28A, C29A, A30G
DNA 1: CAATCTGAATTCCGGTCTCCC
DNA 2: TGGTGGCTACGACGGGATT
B4: UAAGUAU (DNA:RNA)
RNA: B1 RNA with A25U, G27A, C29U
DNA 1: CAATCTGAATTCCGGTCTCCC
DNA 2: TGGTGGCTACGACGGGATT
B5: UCCGGAA (DNA:RNA)
RNA: B1 RNA with A25U, A26C, G27C, C29G, U31A
DNA 1: CAATCTGAATTCCGGTCTCCC
DNA 2: TGGTGGCTACGACGGGATT
B6: CCCAUAA (DNA:RNA)
RNA: B1 RNA with A25C, A26C, G27C, G28A, C29U, U31A
DNA 1: CAATCTGAATTCCGGTCTCCC
DNA 2: TGGTGGCTACGACGGGATT
B7: UGAAACA (DNA:RNA)
RNA: GGGAGACCGGAAUUCAGAUUGUCCUGAAACAUUAAAUCCCGUCGUAGCCACCA
DNA 1: CAATCTGAATTCCGGTCTCCC
DNA 2: TGGTGGCTACGACGGGATT
B8: CACUGAU (DNA:RNA)
RNA: B1 RNA with A25C, G27C, G28U, C29G
DNA 1: CAATCTGAATTCCGGTCTCCC
DNA 2: TGGTGGCTACGACGGGATT
B9: ACAGACA (DNA:RNA)
RNA: B7 RNA with U25A, G26C, A28G
DNA 1: CAATCTGAATTCCGGTCTCCC
DNA 2: TGGTGGCTACGACGGGATT
B10: AACAUAU (DNA:RNA)
RNA: B1 RNA with G27C, G28A, C29U
DNA 1: CAATCTGAATTCCGGTCTCCC
DNA 2: TGGTGGCTACGACGGGATT
B11: GACUCUA (DNA:RNA)
RNA: B1 RNA with A25G, G27C, G28U, A30U, U31A
DNA 1: CAATCTGAATTCCGGTCTCCC
DNA 2: TGGTGGCTACGACGGGATT
B12: AGACUGU (DNA:RNA)
RNA: B1 RNA with A26G, G27A, G28C, C29U, A30G
DNA 1: CAATCTGAATTCCGGTCTCCC
DNA 2: TGGTGGCTACGACGGGATT
B13: UUGCGCC (DNA:RNA)
RNA: B7 RNA with G26U, A27G, A28C, A29G, A31C
DNA 1: CAATCTGAATTCCGGTCTCCC
DNA 2: TGGTGGCTACGACGGGATT
B14: GUCUCAA (DNA:RNA)
RNA: B1 RNA with A25G, A26U, G27C, G28U, U31A
DNA 1: CAATCTGAATTCCGGTCTCCC
DNA 2: TGGTGGCTACGACGGGATT
B15: UCGUUAA (DNA:RNA)
RNA: B1 RNA with A25U, A26C, G28U, C29U, U31A
DNA 1: CAATCTGAATTCCGGTCTCCC
DNA 2: TGGTGGCTACGACGGGATT
B16: CCGGACG (DNA:RNA)
RNA: B1 RNA with A25C, A26C, C29A, A30C, U31G
DNA 1: CAATCTGAATTCCGGTCTCCC
DNA 2: TGGTGGCTACGACGGGATT
B17: CAAAUCC (DNA:RNA)
RNA: B7 RNA with U25C, G26A, A29U, A31C
DNA 1: CAATCTGAATTCCGGTCTCCC
DNA 2: TGGTGGCTACGACGGGATT
B18: GAAGGAG (DNA:RNA)
RNA: B1 RNA with A25G, G27A, C29G, U31G
DNA 1: CAATCTGAATTCCGGTCTCCC
DNA 2: TGGTGGCTACGACGGGATT
B19: GGAUAGC (DNA:RNA)
RNA: B7 RNA with U25G, A28U, C30G, A31C
DNA 1: CAATCTGAATTCCGGTCTCCC
DNA 2: TGGTGGCTACGACGGGATT
B20: GUGCUGA (DNA:RNA)
RNA: B1 RNA with A25G, A26U, G28C, C29U, A30G, U31A
DNA 1: CAATCTGAATTCCGGTCTCCC
DNA 2: TGGTGGCTACGACGGGATT
B21: AUGAUCG (DNA:RNA)
RNA: B1 RNA with A26U, G28A, C29U, A30C, U31G
DNA 1: CAATCTGAATTCCGGTCTCCC
DNA 2: TGGTGGCTACGACGGGATT
B22: UAUUUGU (DNA:RNA)
RNA: B1 RNA with A25U, G27U, G28U, C29U, A30G
DNA 1: CAATCTGAATTCCGGTCTCCC
DNA 2: TGGTGGCTACGACGGGATT
B23: CAAAGCC (DNA:RNA)
RNA: B7 RNA with U25C, G26A, A29G, A31C
DNA 1: CAATCTGAATTCCGGTCTCCC
DNA 2: TGGTGGCTACGACGGGATT
B24: GGACGGA (DNA:RNA)
RNA: B7 RNA with U25G, A28C, A29G, C30G
DNA 1: CAATCTGAATTCCGGTCTCCC
DNA 2: TGGTGGCTACGACGGGATT
B25: GGACUCG (DNA:RNA)
RNA: B7 RNA with U25G, A28C, A29U, A31G
DNA 1: CAATCTGAATTCCGGTCTCCC
DNA 2: TGGTGGCTACGACGGGATT
B26: ACAUUGG (DNA:RNA)
RNA: B1 RNA with A26C, G27A, G28U, C29U, A30G, U31G
DNA 1: CAATCTGAATTCCGGTCTCCC
DNA 2: TGGTGGCTACGACGGGATT
B27: UCCGGAU (DNA:RNA)
RNA: B1 RNA with A25U, A26C, G27C, C29G
DNA 1: CAATCTGAATTCCGGTCTCCC
DNA 2: TGGTGGCTACGACGGGATT
B28: UGAUACA (DNA:RNA)
RNA: B7 RNA with A28U
DNA 1: CAATCTGAATTCCGGTCTCCC
DNA 2: TGGTGGCTACGACGGGATT
B29: GCAGCGU (DNA:RNA)
RNA: B1 RNA with A25G, A26C, G27A, A30G
DNA 1: CAATCTGAATTCCGGTCTCCC
DNA 2: TGGTGGCTACGACGGGATT
B30: CACCCUG (DNA:RNA)
RNA: B1 RNA with A25C, G27C, G28C, A30U, U31G
DNA 1: CAATCTGAATTCCGGTCTCCC
DNA 2: TGGTGGCTACGACGGGATT
B31: CACCUCG (DNA:RNA)
RNA: B1 RNA with A25C, G27C, G28C, C29U, A30C, U31G
DNA 1: CAATCTGAATTCCGGTCTCCC
DNA 2: TGGTGGCTACGACGGGATT

Residue numbers refer to the chain shown, from its start. Some of the results follow.

Experimental findings from article PMC9911399, “Two distinct binding modes provide the RNA-binding protein RbFox with extraordinary sequence specificity” are described below.

For the test, the target named is T1, RBFOX1 RRM RbFoxmut (Fox-RRM*) (Homo sapiens, UniProt Q9NWB1 109-208, R118D;E147R;N151S;E152T).
T1 sequence: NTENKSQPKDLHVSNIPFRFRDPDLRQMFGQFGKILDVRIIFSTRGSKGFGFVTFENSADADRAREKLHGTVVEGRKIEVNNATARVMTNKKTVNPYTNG
The experiment in a line: EMSA; HiTS-Eq, 1 nM pool, 10 min; buffer printed only for the single-RNA assays: 10 mM Tris pH 7.5, 150 mM NaCl, 3.4 mM EDTA, 0.001% NP-40, 30 C. The following applies: tags: His6 N-terminal (pET28a); label: 5' 32P. A digest of the protocol:
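Purified wild-type or mutant RbFox RRM at increasing concentrations was equilibrated with 1 nM of 5′-radiolabelled RNA carrying 7 randomized nucleotides for 10 min in 50 µL. Unbound RNA was separated by 8% native PAGE and sequenced. Relative association constants came from read-count changes of each RNA species compared with the control reaction, normalised to the cognate motif.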
In general terms: A gel shift assay detects complexes by their altered migration in electrophoresis.
Turning to B1, the binding signal was 0.0882 KA relative to UGCAUGU.
On to B2, for which the binding signal is 0.0611 KA relative to UGCAUGU.
Regarding B3, the binding signal is 0.115 KA relative to UGCAUGU.
As for B4, the binding signal is 0.0876 KA relative to UGCAUGU.
As to B5, the binding signal was 0.0662 KA relative to UGCAUGU.
Consider B6, for which the binding signal is 0.0954 KA relative to UGCAUGU.
For B7 the value was 0.089 KA relative to UGCAUGU; for B8, 0.0795 KA relative to UGCAUGU.
Take B9: the binding signal is 0.0669 KA relative to UGCAUGU.
The same measure for B10: 0.08 KA relative to UGCAUGU.
Consider B11, for which the binding signal was 0.114 KA relative to UGCAUGU.
On to B12, for which the binding signal is 0.116 KA relative to UGCAUGU.
Take B13: the binding signal is 0.192 KA relative to UGCAUGU.
For the molecule B14, the binding signal is 0.114 KA relative to UGCAUGU.
With B15, the binding signal is 0.132 KA relative to UGCAUGU.
On to B16, for which the binding signal is 0.0582 KA relative to UGCAUGU.
For the molecule B17, the binding signal was 0.0732 KA relative to UGCAUGU.
For B18 the value was 0.092 KA relative to UGCAUGU; for B19, 0.111 KA relative to UGCAUGU; for B20, 0.122 KA relative to UGCAUGU.
In the case of B21, the binding signal was 0.157 KA relative to UGCAUGU.
Consider B22, for which the binding signal was 0.101 KA relative to UGCAUGU.
On to B23, for which the binding signal was 0.0863 KA relative to UGCAUGU.
For B24 the value was 0.0628 KA relative to UGCAUGU; for B25, 0.126 KA relative to UGCAUGU.
Regarding B26, the binding signal is 0.099 KA relative to UGCAUGU.
For B27, the binding signal is 0.0634 KA relative to UGCAUGU.
As to B28, the binding signal was 0.0939 KA relative to UGCAUGU.
In the case of B29, the binding signal is 0.121 KA relative to UGCAUGU.
In the case of B30, the binding signal was 0.0925 KA relative to UGCAUGU.
Consider B31, for which the binding signal is 0.126 KA relative to UGCAUGU.
